Test results: PubChem BioAssay (Tox21)
Several values for one entry are separate records, joined by “and”; a condition that tells them apart may be missing. Equal values may be shown once. The shares of active, inactive and inconclusive entries below differ from those in the screen. For some assays here: Where the call is inconclusive, the potency comes from a doubtful curve fit. The source holds several records for some structures; these can differ, active in one and inactive in another. Activity calls are given as the source filed them. Unless noted, the call rests on the fitted dose curve; in most records, active means well fitted curve in the direction sought with a large enough effect in the repeat runs; inconclusive means weak or mixed curves; inactive means no such curve, though single readings can be large; an effect the other way counts as inactive or inconclusive.

Key:
[1] = qHTS assay for small molecules that induce genotoxicity in human embryonic kidney cells expressing luciferase-tagged ATAD5 - cell viability (AID 651634; calls by dose curve; further: potency means the concentration at half of the fitted maximal effect; nearly all actives have a fitted effect of over 25% in size)
How it was run: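 15.5 hr compound or vehicle exposure of HEK293T cells expressing luciferase-tagged ATAD5 at 37C; live-cell protease activity is read by fluorescence after 30 min of CellTiter-Fluor.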

[2] = qHTS assay to identify small molecule antagonists of the glucocorticoid receptor (GR) signaling pathway - cell viability counter screen (AID 720693); settings: GR-bla HeLa viability, CellTiter-Glo luminescence, 18 h, with 5 nM dexamethasone present; viability change, negative = cytotoxic: at 58.5 µM (top of the series) unless noted; further: nearly all actives have a fitted effect of over 55% in size; further: potency means the concentration at half of the fitted maximal effect; on viability change, negative = cytotoxic: on the % scale 0 is the no-effect control and ±100 the full control effect
[3] = qHTS assay for identifying genotoxic compounds that show differential cytotoxicity against isogenic chicken DT40 cell lines with known DNA damage response pathways - wild type cell line (AID 743012); settings: DT40 wild type chicken cells viability, CellTiter-Glo, 40 h; activity change, negative = cytotoxicity: at 68.4 µM (top of the series) unless noted; further: nearly all actives have a fitted effect of over 60% in size; further: potency means the concentration at half of the fitted maximal effect; on activity change, negative = cytotoxicity: on the % scale 0 is the no-effect control and ±100 the full control effect
How it was run: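 Endpoint: CellTiter-Glo luminescence, 30 min RT. Cells: wild type DT40, 300/well. Exposure: compounds in DMSO, 40 h, 37 C/5% CO2, after ~0.5 h pre-incubation.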

[4] = qHTS assay for identifying genotoxic compounds that show differential cytotoxicity against isogenic chicken DT40 cell lines with known DNA damage response pathways - Rev3 mutant cell line (AID 743014); settings: chicken DT40 Rev3-/- viability, CellTiter-Glo, 40 h; activity, negative = cytotoxicity: at 68.4 µM (top of the series); further: potency means the concentration at half of the fitted maximal effect; nearly all actives have a fitted effect of over 55% in size
[5] = qHTS assay for identifying genotoxic compounds that show differential cytotoxicity against isogenic chicken DT40 cell lines with known DNA damage response pathways - Rad54/Ku70 mutant cell line (AID 743015); settings: DT40 Rad54/Ku70 mutant viability, CellTiter-Glo, 40 h; activity change, negative = cytotoxicity: at 66.8 µM (top of the series); further: potency means the concentration at half of the fitted maximal effect; nearly all actives have a fitted effect of over 60% in size
[6] = qHTS assay to identify small molecule antagonists of the androgen receptor (AR) signaling pathway - cell viability counter screen (AID 743033; further: nearly all actives have a fitted effect of over 45% in size; further: potency means the concentration at half of the fitted maximal effect); settings: AR-bla HEK293 viability, CellTiter-Glo luminescence, 16 h; activity change, negative = cytotoxicity: at 58.5 µM (top of the series)
[7] = qHTS assay for small molecule disruptors of the mitochondrial membrane potential - cell viability (AID 720634; calls by dose curve; further: potency means the concentration at half of the fitted maximal effect; nearly all actives have a fitted effect of over 20% in size)
How it was run: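 In this qHTS format, HepG2 cells plated overnight were pinned with compound, incubated 1 hr, and assayed for ATP luminescence with CellTiter-Glo after m-MPI dye addition.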

[8] = qHTS assay for small molecule disruptors of the mitochondrial membrane potential (AID 720635); settings: HepG2 mitochondrial membrane potential, Mito-MPS dye ratio; further: potency means the concentration at half of the fitted maximal effect
How it was run: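 HepG2 cells exposed to compound 1 hr at 37C, then Mito-MPS dye 30 min. Ratio read of aggregate (540/590 nm) versus monomer (490/535 nm) fluorescence.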

[9] = target: Glucocorticoid receptor (Homo sapiens) (UniProt P04150); test: qHTS assay to identify small molecule antagonists of the glucocorticoid receptor (GR) signaling pathway (AID 720692; active means well fitted inhibition curve with a large enough effect in the signal ratio in the repeat runs, not every such curve was filed as active; inconclusive means weak or mixed curves, or effect the other way; inactive means no such curve, though single readings can be large or run the other way; the % refers to the signal ratio; further: potency means the concentration at half of the fitted maximal effect); settings: GR-bla HeLa, beta-lactamase FRET ratio, dexamethasone-stimulated, 18 h; activity change, negative = inhibition: at 58.5 µM (top of the series) unless noted
How it was run: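 Tox21 10K library screened in concentration-response for blockade of dexamethasone (5 nM final)-induced GRE-bla reporter activity in HeLa cells; 18 h treatment, fluorescence read.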

[10] = target: Glucocorticoid receptor (Homo sapiens) (UniProt P04150); test: qHTS assay to identify small molecule agonists of the glucocorticoid receptor (GR) signaling pathway (AID 720691; active means well fitted activation curve with a large enough effect in the signal ratio in the repeat runs, not every such curve was filed as active; inconclusive means weak or mixed curves, or effect the other way; inactive means no such curve, though single readings can be large or run the other way; the % refers to the signal ratio; further: potency means the concentration at half of the fitted maximal effect; on activation: on the % scale 0 is the no-effect control and ±100 the full control effect); settings: GR-bla HeLa, beta-lactamase reporter ratio, 18 h; activation: at 62.4 µM (top of the series) unless noted
How it was run: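 Measures GR pathway activation through a GRE-beta-lactamase reporter stably integrated in HeLa cells, with 18 h compound treatment at 37 C and fluorescence detection using a FRET substrate.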

[11] = qHTS assay to test for compound auto fluorescence at 535 nm (green) in HEK293 cells (AID 720680); settings: green autofluorescence 485/535 nm; at 91.3 µM (top of the series); further: on the % scale 0 is the no-effect control and ±100 the full control effect
[12] = ratio activity, negative = MMP loss: at 83.2 µM (top of the series) unless noted
Tags describe the fitted curve by direction and shape or compound fluorescence and quenching.

UniProt P04150, sequence (P04150 whole entry, looked up): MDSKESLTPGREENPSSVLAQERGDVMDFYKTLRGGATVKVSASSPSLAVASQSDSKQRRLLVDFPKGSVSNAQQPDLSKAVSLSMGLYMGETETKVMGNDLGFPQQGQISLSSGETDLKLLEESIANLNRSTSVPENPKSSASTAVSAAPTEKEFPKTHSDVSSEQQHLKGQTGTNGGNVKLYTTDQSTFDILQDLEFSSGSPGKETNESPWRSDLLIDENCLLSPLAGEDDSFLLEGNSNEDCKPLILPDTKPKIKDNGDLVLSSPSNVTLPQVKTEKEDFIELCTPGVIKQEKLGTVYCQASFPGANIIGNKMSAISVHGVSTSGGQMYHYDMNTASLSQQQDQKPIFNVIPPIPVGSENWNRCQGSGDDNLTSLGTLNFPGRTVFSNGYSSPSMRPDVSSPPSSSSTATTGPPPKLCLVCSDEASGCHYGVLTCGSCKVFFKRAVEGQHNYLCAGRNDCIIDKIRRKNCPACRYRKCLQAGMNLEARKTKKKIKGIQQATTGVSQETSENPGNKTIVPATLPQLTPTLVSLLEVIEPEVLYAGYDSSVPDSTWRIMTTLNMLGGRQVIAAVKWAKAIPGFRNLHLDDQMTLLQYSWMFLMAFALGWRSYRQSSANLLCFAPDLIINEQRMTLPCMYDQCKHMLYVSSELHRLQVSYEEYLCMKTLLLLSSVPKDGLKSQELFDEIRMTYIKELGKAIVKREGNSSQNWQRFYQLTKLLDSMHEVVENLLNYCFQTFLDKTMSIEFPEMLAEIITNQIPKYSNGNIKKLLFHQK

SMILES: Oc1cc(Cl)c(Cl)cc1Cl
- Potency [1]: inconclusive: 68 µM [falling, partial curve, poor fit]
- Potency [2]: inconclusive: 54.5 µM [cytotoxic, single point]
- Potency [3]: inactive and inconclusive: 68 µM [cytotoxic, partial curve] and inconclusive: 68.6 µM [cytotoxic, single point]
- Potency [4]: inconclusive: 68 µM [cytotoxic] and inconclusive: 68.6 µM [cytotoxic, single point]
- Potency [5]: inconclusive: 76.3 µM [cytotoxic, single point] and inconclusive: 68.6 µM [cytotoxic, single point]
- Potency [6]: inconclusive: 54.5 µM [cytotoxic, single point] and inconclusive: 49 µM [cytotoxic, single point] and inconclusive: 54.9 µM [cytotoxic, single point]

SMILES: CC1(C)[C@H](C(=O)O[C@H](C#N)c2cccc(Oc3ccccc3)c2)[C@@H]1/C=C(\Cl)C(F)(F)F
- Potency [7]: inconclusive: 25.3 µM [cytotoxic, partial curve, poor fit]
- Potency [8, 12]: active: 25.3 µM
- Potency [9]: inconclusive: 16.1 µM [inhibitor, partial curve, poor fit]
- Potency [2]: inactive
- Potency [6]: inconclusive: 45.4 µM [cytotoxic, partial curve, poor fit]

SMILES: CC(C)[C@@H](Nc1ccc(C(F)(F)F)cc1Cl)C(=O)OC(C#N)c1cccc(Oc2ccccc2)c1 (stereo not given in full)
- Potency [7]: inconclusive: 46.8 µM [cytotoxic, partial curve, poor fit]
- Potency [8, 12]: active: 26.3 µM
- Potency [10]: inconclusive: 52.9 µM [falling, single point]
- Potency [9]: inconclusive: 52.9 µM [cytotoxic]

SMILES: Clc1ccc(C(c2ccc(Cl)cc2)C(Cl)Cl)cc1
- Potency [8, 12]: active: 9.85 µM and active: 9.69 µM
- Potency [10]: inconclusive: 39.5 µM [cytotoxic, partial curve] and inactive
- Potency [2]: inconclusive: 55.8 µM [cytotoxic, single point] and inconclusive: 54.9 µM [cytotoxic, single point]
- Potency [4]: active: 17.5 µM and active: 3.86 µM
- Potency [6]: inconclusive: 62.7 µM [cytotoxic, partial curve, poor fit]

SMILES: O=C(O)c1ccc2[nH]cc(CCCCN3CC=C(c4ccccc4)CC3)c2c1
- Potency [8, 12]: inactive

SMILES: Brc1ccc(Oc2ccc(Br)cc2Br)c(Br)c1
- Potency [8, 12]: active: 17.2 µM

SMILES: COC(=O)C(c1ccccc1)C1CCCCN1 (stereo not given)
- ratio activity, negative = MMP loss ([8]; at 83.2 µM (top of the series)): inactive: 23.5%
- ratio activity, negative = MMP loss [8, 12]: inconclusive: 19.3%
- Potency [9]: inactive

SMILES: Nc1nc(N)nc(NC2CC2)n1
- ratio activity, negative = MMP loss ([8]; at 83.2 µM (top of the series)): inactive: 23.2%
- ratio activity, negative = MMP loss ([8]; at 95.3 µM (top of the series)): inactive: 8.97%
- ratio activity, negative = MMP loss [8, 12]: inconclusive: 28.9%
- activation [10]: inconclusive: -0.499% [phenotype inactive] [at 79.2 µM]
- activity change, negative = inhibition [9]: inconclusive: -0.549%
- Potency [3]: inconclusive: 68.6 µM [cytotoxic, single point]
- Potency [4]: inconclusive: 68.6 µM [cytotoxic, single point]
- Potency [6]: inconclusive: 54.9 µM [cytotoxic, single point]

SMILES: O=C(O)c1cc(Oc2ccc(C(F)(F)F)cc2Cl)ccc1[N+](=O)[O-]
- ratio activity, negative = MMP loss [8, 12]: inconclusive: -0.344%
- Potency [10]: inactive
- Potency [9]: inconclusive: 43.7 µM [inhibitor, partial curve] and inconclusive: 55.2 µM
- activity change, negative = inhibition [9]: inconclusive: -36.4%

SMILES: O=C(O)c1c(Cl)ccc2cc(Cl)cnc12
- ratio activity, negative = MMP loss [8, 12]: inconclusive: 24.5%

SMILES: CCCN(CCC)c1c([N+](=O)[O-])cc(C(F)(F)F)cc1[N+](=O)[O-]
- Potency [8, 12]: inconclusive: 48.5 µM [inhibitor] and inconclusive: 61.1 µM [inhibitor]

SMILES: Cc1cc(C)c(C2=C(OC(=O)CC(C)(C)C)C3(CCCC3)OC2=O)c(C)c1
- Potency [7]: inconclusive: 57 µM [cytotoxic, partial curve]
- activity change, negative = inhibition [9]: inconclusive: 23.1% [at 78.9 µM]

SMILES: Nc1ccc([As](=O)(O)O)cc1
- Potency [8, 12]: inconclusive: 6.86 µM [activator, partial curve, poor fit]
- ratio activity, negative = MMP loss [8, 12]: inconclusive: 28.2%
- Potency [3]: inconclusive: 33.4 µM [cytotoxic, single point]
- Potency [6]: inactive

SMILES: CCC(C)(C#N)N=NC(C)(C#N)CC (stereo not given)
- Potency [8, 12]: inconclusive: 27.3 µM [activator, partial curve, poor fit]

SMILES: O=c1nc(O)n(Cl)c(=O)n1Cl
- ratio activity, negative = MMP loss ([8]; at 83.2 µM (top of the series)): inactive: 11.2% and inactive: 6.26%
- ratio activity, negative = MMP loss [8, 12]: inconclusive: -5.1%
- Potency [9]: inactive

SMILES: C#CC1(O)CCCCC1
- ratio activity, negative = MMP loss [8, 12]: inconclusive: -16.1%

SMILES: ClC1=C(Cl)C2(Cl)C(CBr)CC1(Cl)C2(Cl)Cl (stereo not given)
- Potency [8, 12]: inconclusive: 19.7 µM [inhibitor, partial curve] and active: 27.3 µM
- Potency [10]: inconclusive: 54.9 µM [cytotoxic]
- Potency [9]: inactive and inconclusive: 61.6 µM [cytotoxic, partial curve, poor fit]
- Potency [2]: inconclusive: 26.8 µM [cytotoxic, single point] and inconclusive: 54.9 µM [cytotoxic, single point]
- Potency [3]: inconclusive: 33.5 µM [cytotoxic, single point] and inconclusive: 68.6 µM [cytotoxic, single point]
- Potency [4]: inconclusive: 23.7 µM [cytotoxic, partial curve]
- Potency [5]: inconclusive: 33.5 µM [cytotoxic, single point]

SMILES: CN1CCC(O)(c2ccc(F)cc2)C(C(=O)c2ccc(F)cc2)C1 (stereo not given)
- ratio activity, negative = MMP loss [8, 12]: inconclusive: 26.7%

SMILES: ClC(Cl)=C(Cl)Cl
- Potency [8, 12]: inconclusive: 3.02 µM [activator, partial curve, poor fit]

SMILES: c1ccc(OCC2CO2)cc1 (stereo not given)
- Potency [8, 12]: inconclusive: 43.4 µM [activator, partial curve]
- Potency [10]: inactive
- Potency [6]: inconclusive: 69.4 µM [cytotoxic, partial curve, poor fit]

SMILES: CCOc1cc(C(C)(C)C)ccc1C1COC(c2c(F)cccc2F)=N1 (stereo not given)
- Potency [8, 12]: active: 16.6 µM
- fluorescence, % of fluorescein [11]: inactive: 0.175%
- Potency [2]: inconclusive: 37.4 µM [cytotoxic, single point]
- Potency [4]: active: 23.4 µM
- Potency [5]: active: 11.7 µM

SMILES: CCc1cc(OC)c(C[C@H](C)N)cc1OC
- ratio activity, negative = MMP loss [8, 12]: inconclusive: 17% [at 95.3 µM]

SMILES: CCCCCCCCOC(=O)c1ccccc1C(=O)OCCCCCCCC
- ratio activity, negative = MMP loss ([8]; at 83.2 µM (top of the series)): inactive: 6.44% and inactive: 20.8%
- ratio activity, negative = MMP loss [8, 12]: inconclusive: 22.5%
- Potency [3]: inconclusive: 9.66 µM [rising, full curve]

SMILES: O=[N+]([O-])c1ccc(Cl)c(Cl)c1Cl
- ratio activity, negative = MMP loss [8, 12]: inconclusive: 25.1%

SMILES: CCOC(=O)[C@]1(c2ccccc2)Oc2ccccc2[C@@H]1N
- Potency [8, 12]: inconclusive: 68.6 µM [activator, partial curve]
- Potency [10]: inconclusive: 54.9 µM [falling, single point]
- Potency [9]: inconclusive: 24.5 µM [fluorescent, full curve, poor fit]
- Potency [6]: inconclusive: 54.9 µM [cytotoxic, single point]

SMILES: CCCCC(CC)COC(=O)c1c(Br)c(Br)c(Br)c(Br)c1C(=O)OCC(CC)CCCC (stereo not given)
- ratio activity, negative = MMP loss [8, 12]: inconclusive: 32.4%
- Potency [10]: active: 33.8 µM

SMILES: CCN(C(C)=O)c1cccc(-c2ccnc3c(C#N)cnn23)c1
- Potency [8, 12]: inconclusive: 26.6 µM [activator, partial curve, poor fit]

SMILES: O=P(Oc1ccccc1)(Oc1ccccc1)Oc1ccccc1
- Potency [7]: active: 13.6 µM and inconclusive: 24.3 µM [cytotoxic, partial curve]
- Potency [3]: active: 54.2 µM and active: 48.6 µM
- Potency [5]: active: 38.4 µM and active: 27.3 µM

SMILES: CC(C)[C@H](C(=O)O[C@H](C#N)c1cccc(Oc2ccccc2)c1)c1ccc(Cl)cc1
- Potency [7]: inconclusive: 30.6 µM [cytotoxic, partial curve]
- Potency [4]: active: 43.2 µM

SMILES: COc1ccc(/C(=C/C(=O)N2CCOCC2)c2ccc(Cl)cc2)cc1OC
- Potency [8, 12]: inconclusive: 61.1 µM [activator, partial curve, poor fit]

SMILES: CCN(CC)CCOC(=O)C(C)(c1ccccc1)c1ccccc1
- Potency [8, 12]: inconclusive: 18.8 µM [activator, partial curve]

SMILES: O=[N+]([O-])c1ccc(Nc2ccccc2)cc1
- Potency [7]: inconclusive: 27.5 µM [cytotoxic, partial curve] and active: 61.1 µM
- Potency [9]: active: 49.4 µM and inconclusive: 54.9 µM [cytotoxic, single point]
- Potency [2]: inconclusive: 55.4 µM [cytotoxic, partial curve, poor fit] and active: 43.6 µM
- Potency [3]: inconclusive: 69.1 µM [cytotoxic, single point] and active: 15.4 µM
- Potency [5]: active: 30.9 µM and active: 10.9 µM
- Potency [6]: inconclusive: 34.9 µM [cytotoxic, partial curve] and active: 38.9 µM

SMILES: CC(C)(C#N)C(C)(C)C#N
- Potency [8, 12]: inactive

SMILES: CC(C)(C)c1ccc(OP(=O)(Oc2ccccc2)Oc2ccccc2)cc1
- Potency [7]: inconclusive: 27.5 µM [cytotoxic, partial curve]
- Potency [6]: inconclusive: 24.7 µM [cytotoxic, partial curve, poor fit]
